Measurements as given in ChEMBL document CHEMBL1201862, “PubChem BioAssay data set” (2004).
The entries are a selection whose mix differs from that of the whole data set. Only a part of the results of these assays is listed, not drawn at random.

Molecular target: Ataxin-2 (Homo sapiens) (UniProt Q99700)
Experiment: qHTS for Inhibitors of ATXN expression.
Assay type: functional; call rule not given here

UniProt Q99700, sequence (Q99700 whole entry): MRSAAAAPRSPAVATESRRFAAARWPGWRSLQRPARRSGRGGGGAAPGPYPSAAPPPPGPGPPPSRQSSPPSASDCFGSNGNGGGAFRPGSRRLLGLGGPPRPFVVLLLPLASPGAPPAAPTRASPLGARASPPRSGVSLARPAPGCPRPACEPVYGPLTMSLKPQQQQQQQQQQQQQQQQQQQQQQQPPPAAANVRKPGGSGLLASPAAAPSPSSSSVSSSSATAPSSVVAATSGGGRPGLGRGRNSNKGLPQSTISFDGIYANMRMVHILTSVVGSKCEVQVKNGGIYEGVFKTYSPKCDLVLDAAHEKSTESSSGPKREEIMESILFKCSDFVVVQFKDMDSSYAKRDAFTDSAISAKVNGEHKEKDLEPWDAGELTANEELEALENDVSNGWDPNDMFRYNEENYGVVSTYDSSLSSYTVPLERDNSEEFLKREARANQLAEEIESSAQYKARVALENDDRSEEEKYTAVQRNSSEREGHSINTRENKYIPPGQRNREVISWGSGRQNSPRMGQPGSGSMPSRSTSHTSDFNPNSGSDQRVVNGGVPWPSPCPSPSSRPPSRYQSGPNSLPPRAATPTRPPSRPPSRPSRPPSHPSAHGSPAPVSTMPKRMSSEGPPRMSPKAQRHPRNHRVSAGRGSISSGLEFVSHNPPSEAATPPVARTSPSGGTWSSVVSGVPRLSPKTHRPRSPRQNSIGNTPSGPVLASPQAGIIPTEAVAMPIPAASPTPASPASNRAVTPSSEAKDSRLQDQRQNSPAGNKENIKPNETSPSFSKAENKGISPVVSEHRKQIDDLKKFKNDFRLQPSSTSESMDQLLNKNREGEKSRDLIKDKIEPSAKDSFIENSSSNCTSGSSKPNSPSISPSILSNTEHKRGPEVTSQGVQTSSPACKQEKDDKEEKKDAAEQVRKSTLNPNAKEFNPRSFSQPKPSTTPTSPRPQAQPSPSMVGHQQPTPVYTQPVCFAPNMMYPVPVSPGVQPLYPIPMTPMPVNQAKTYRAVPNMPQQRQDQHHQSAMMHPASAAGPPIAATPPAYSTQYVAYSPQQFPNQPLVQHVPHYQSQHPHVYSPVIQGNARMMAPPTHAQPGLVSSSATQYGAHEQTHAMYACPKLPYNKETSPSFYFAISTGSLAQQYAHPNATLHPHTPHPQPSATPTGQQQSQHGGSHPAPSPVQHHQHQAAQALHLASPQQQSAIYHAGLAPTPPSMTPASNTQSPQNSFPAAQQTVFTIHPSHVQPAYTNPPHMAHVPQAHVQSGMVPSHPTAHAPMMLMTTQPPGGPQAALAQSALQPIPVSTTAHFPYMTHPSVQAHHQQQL

SMILES | Potency
CNC1CCc2cc(OC)c(OC)c(OC)c2-c2ccc(SC)c(=O)cc21 (stereo unspecified) | active: 3.8 nM
